The values that follow come from the supplement of paper PMC11417369.

± gives the standard deviation of the averaged measurements. Some of the results follow.

This experiment relates to PfAP2-I AP2 domain 3 (GST-tagged). The experiment is described as follows: gcPBM binding intensity (ln(normalized median fluorescence intensity)); higher = stronger DNA binding. In a few lines:
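Each value is the highest Masliner-normalised natural-log median intensity across replicate spots of either orientation of a probe. The probes were primer-extended double-stranded 36-bp intergenic genomic sequences on an Agilent 4 × 180k array, alongside negative controls, exposed for 1 h to GST-tagged P. falciparum DNA-binding domains expressed in E. coli. Bound protein was picked up with Alexa488 anti-GST antibody and scanned at 488 nm.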
“ATATAACAGAAACACACACACATATATATATATTAT [CACACA_site4140]”: the “gcPBM binding intensity (ln)” value is 7.86 ± 0.5.

Turning to “TATTTTTATATATAATCACACATTGGAATGTTCTAA [CACACA_site5540]”, the “gcPBM binding intensity (ln)” value worked out at 7.71 ± 0.61.

For the sequence “ATAAATGATAGTAAAAGTACACAAAATGTTTTAAAA [XGTACX_site1623]”, the “gcPBM binding intensity (ln)” value stood at 7.92 ± 0.4.

Take “ATTACATGTATACATGTCAACACGTATAAAAAAAAA [CACACA_negctrl_site1154]”: the “gcPBM binding intensity (ln)” value came out at 7.83 ± 0.77.

On to “ATTATAAATATATTTTGTACTTAAAAGGAAAAAAAA [XGTACX_site55]”, for which the “gcPBM binding intensity (ln)” value is 7.66 ± 0.28.

For “TACACAAACAGACACACACACACACGCGCACAAAAA [CACACA_site7192]”, the “gcPBM binding intensity (ln)” value was 8.48 ± 0.51.

With “AATAAGCATAGACACACACACAAAAAAAAAAAAAAA [CACACA_site6476]”, the “gcPBM binding intensity (ln)” value was found to be 7.99 ± 0.54.

Turning to “AATAAATAGAGGAAATGTACATATAAAAATAATTTC [XGTACX_site2454]”, the “gcPBM binding intensity (ln)” value was 7.84 ± 0.76.

Turning to “GATTATCTTCAAGTATGTACACACTATATATAATAA [XGTACX_site5108]”, the “gcPBM binding intensity (ln)” value was determined as 8.09 ± 0.36.

“TTAACATCTTCGTTGACACACAAAAAAAAAAATAAT [CACACA_site1819]”: the “gcPBM binding intensity (ln)” value stood at 7.8 ± 0.5.

Turning to “ATGTAGACAACATATGAACACACAAAATATTTTTTT [CACACA_site8955]”, the “gcPBM binding intensity (ln)” value was determined as 7.72 ± 0.56.

Take “TTAACAAAATTTTTAACACACAAAAAAAAAAAAAAA [CACACA_site1828]”: the “gcPBM binding intensity (ln)” value is 8.2 ± 0.8.

As to “CCAAAATTTATAAATTGTACATATTTTTAAATTCTT [XGTACX_site833]”, the “gcPBM binding intensity (ln)” value is 7.48 ± 0.51.

For the sequence “ATAAAAGAATTAAATAATCAAAATGATTATTTTATA [CACACA_negctrl_site466]”, the “gcPBM binding intensity (ln)” value stood at 6.97 ± 0.38.

Take “GATAAATAATAATAAGGTACACATAAAATATTCCTT [XGTACX_site2963]”: the “gcPBM binding intensity (ln)” value was 7.62 ± 0.4.

Take “GGTATAATTCATATAACACACATTTCAATGTTAAAA [CACACA_site2172]”: the “gcPBM binding intensity (ln)” value is 7.93 ± 0.38.

In the case of “TGTATTAATTTGTAATGTACACATATATGTATTATA [XGTACX_site4152]”, the “gcPBM binding intensity (ln)” value amounted to 7.87 ± 0.28.

Consider “TAAGTAAACTTTCTATGTACATATTTTCAAATATTA [XGTACX_site6260]”, for which the “gcPBM binding intensity (ln)” value was found to be 7.78 ± 0.31.

Consider “CTTATATATACATATACACACACACCCATATATATA [CACACA_site8705]”, for which the “gcPBM binding intensity (ln)” value was 8.43 ± 0.59.

Regarding “ATGTATGCAAAAATGGTGCATATTAAATGTATAACA [GTGCAC_site9722]”, the “gcPBM binding intensity (ln)” value was 10.8 ± 0.49.

Turning to “AAAAAAAAAAGAAACACACACATTTGTCTATAATAT [CACACA_site7063]”, the “gcPBM binding intensity (ln)” value amounted to 7.71 ± 0.87.

In the case of “TTTGTTCTTTTAATGTGTACATATACACTTGTAATA [XGTACX_site2635]”, the “gcPBM binding intensity (ln)” value was determined as 7.92 ± 0.47.

“TGACCTTATGTGTTTTGAAGGGGAAAGGAAATGCGC [XGTACX_negctrl_site411]”: the “gcPBM binding intensity (ln)” value is 7.78 ± 0.68.

For “TATAAAAATAGGATTTGTACATATAAAAAAGGAAAA [XGTACX_site8678]”, the “gcPBM binding intensity (ln)” value was found to be 7.79 ± 0.69.

Turning to “TAATATAAAAAAGGTACTACACGAAGGAATAAAAAT [XGTACX_site6872]”, the “gcPBM binding intensity (ln)” value turned out to be 8.35 ± 0.86.

Regarding “CAGAAATAGAGATACACACACACATATATTTATGTA [CACACA_site3968]”, the “gcPBM binding intensity (ln)” value turned out to be 7.46 ± 0.64.

In the case of “TATAAATATATGTATGCACACATTTTTTTTGGAAAA [CACACA_site1070]”, the “gcPBM binding intensity (ln)” value worked out at 8.55 ± 0.57.

On to “AATAATTTTTTAAACACACACACATATATATATATA [CACACA_site95]”, for which the “gcPBM binding intensity (ln)” value is 9.32 ± 0.28.

As to “TGTTTAAAAATAATTTGTACATATATTTTATTTCAT [XGTACX_site1272]”, the “gcPBM binding intensity (ln)” value was 7.59 ± 0.38.

In the case of “ATAAAGAAATAAAGTTGTACATTATATATATATATA [XGTACX_site7729]”, the “gcPBM binding intensity (ln)” value worked out at 9.23 ± 0.25.

Consider “AATACATACGGACACACACACACATATATATATATA [CACACA_site5884]”, for which the “gcPBM binding intensity (ln)” value is 9.52 ± 0.26.

“TCTTTTGTTTAACCTACATGCAGAATATAAGTCTTC [TGCATGCA_site99]”: the “gcPBM binding intensity (ln)” value was determined as 7.93 ± 0.68.

“ATTCATTATTCACCTTGTACACAAATGATTATCGTA [XGTACX_site455]”: the “gcPBM binding intensity (ln)” value was found to be 8.19 ± 0.49.

With “AGTAAAAAAAATATCTGTACATATTAATATAAATGT [XGTACX_site6234]”, the “gcPBM binding intensity (ln)” value is 7.88 ± 0.4.

As for “AAATATTATTCTTTTATTTTTAAACATATAATTATA [GTGCAC_negctrl_site136]”, the “gcPBM binding intensity (ln)” value was 7.7 ± 0.28.

In the case of “ATCTAAAAATTTTACGCACACAAGTAAAAAAAAAAA [CACACA_site2485]”, the “gcPBM binding intensity (ln)” value worked out at 8.97 ± 0.11.

Regarding “TTATACACTGATAAAAGTACATTTGTATGTTTTTTT [XGTACX_site8959]”, the “gcPBM binding intensity (ln)” value is 7.63 ± 0.42.

As for “TTTTATAATCATAATAGTACTTTTTCTTTTTCACAT [XGTACX_site5017]”, the “gcPBM binding intensity (ln)” value came to 7.67 ± 0.9.

Consider “TAATCATAAAAAAATACACACATATAAAATATAGAT [CACACA_site7020]”, for which the “gcPBM binding intensity (ln)” value was 7.51 ± 0.63.

Regarding “AAAAGTTAAGCAACAAATTTTATTTCTTATATATAA [TGCATGCA_negctrl_site134]”, the “gcPBM binding intensity (ln)” value was found to be 7.73 ± 0.57.

For the sequence “ATATTTATAAATTGCACACAAATAATAACATTATAT [CACACA_site5322]”, the “gcPBM binding intensity (ln)” value was 8.68 ± 0.13.

With “AAAATTCTTATAAGATGTACAATTTGTAACACTATA [XGTACX_site510]”, the “gcPBM binding intensity (ln)” value turned out to be 7.78 ± 0.35.

As for “TTATACTCACGTTACACACACACAATATATATATAT [CACACA_site4137]”, the “gcPBM binding intensity (ln)” value is 9.095 ± 0.064.

In the case of “TTTTTTACAACACGAAAATGAACAATTATAATAAAT [TGCATGCA_negctrl_site301]”, the “gcPBM binding intensity (ln)” value was determined as 7.89 ± 0.74.
